According to the supplement of paper PMC8948288:
Shown are siRNA guide strands that differ only in the seed, positions 2 to 7.

Columns and labels:
GL261 = assay: cell viability relative to siNT1 (ATP content); H4 human neuroglioma and GL261 mouse glioma; higher = less toxic; settings: siRNA concentration 25 nM; 96 h; mouse
H4 = assay: as above; settings: siRNA concentration 10 nM; 96 h; human
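Note: cells reverse transfected with siRNA duplexes via lipid reagent, ATP read by luminescence, triplicate wells, values scaled to mean viability with non-targeting control siNT1.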

| Sequence | cell viability (GL261) | cell viability (H4) |
| --- | --- | --- |
| UGCUGCGACAUGUAAACCA | 21.4% | 60.6% |
| UGCUGCUACAUGUAAACCA | 16.1% | 47.1% |
| UGCUGGAACAUGUAAACCA | 27.3% | 71.7% |
| UGCUGGCACAUGUAAACCA | 17.4% | 7.94% |
| UGCUGGGACAUGUAAACCA | 14.7% | 4.8% |
| UGCUGGUACAUGUAAACCA | 15% | 59.4% |
| UGCUGUAACAUGUAAACCA | 32.1% | 111% |
| UGCUGUCACAUGUAAACCA | 22.5% | 47.3% |
| UGCUGUGACAUGUAAACCA | 15.2% | 81.1% |
| UGCUGUUACAUGUAAACCA | 17.4% | 56.8% |
| UGCUUAAACAUGUAAACCA | 60.3% | 98% |
| UGCUUACACAUGUAAACCA | 51.3% | 70.8% |
| UGCUUAGACAUGUAAACCA | 56.1% | 61.7% |
| UGCUUAUACAUGUAAACCA | 68.1% | 88.2% |
| UGCUUCAACAUGUAAACCA | 26.8% | 75.4% |
| UGCUUCCACAUGUAAACCA | 8.93% | 32.5% |
| UGCUUCGACAUGUAAACCA | 23.2% | 77.6% |
| UGCUUCUACAUGUAAACCA | 10.5% | 64.2% |
| UGCUUGAACAUGUAAACCA | 32% | 76% |
| UGCUUGCACAUGUAAACCA | 25.6% | 22.6% |
| UGCUUGGACAUGUAAACCA | 25.8% | 35.6% |
| UGCUUGUACAUGUAAACCA | 21.3% | 57% |
| UGCUUUAACAUGUAAACCA | 31.9% | 113% |
| UGCUUUCACAUGUAAACCA | 18.4% | 24.6% |

| Sequence | cell viability (GL261) | cell viability (H4) |
| --- | --- | --- |
| UGCUUUGACAUGUAAACCA | 24.6% | 57.8% |
| UGCUUUUACAUGUAAACCA | 18.9% | 35% |
| UGGAAAAACAUGUAAACCA | 82.5% | 117% |
| UGGAAACACAUGUAAACCA | 39.7% | 60.4% |
| UGGAAAGACAUGUAAACCA | 65.1% | 64.4% |
| UGGAAAUACAUGUAAACCA | 34.9% | 76.2% |
| UGGAACAACAUGUAAACCA | 38.4% | 78.2% |
| UGGAACCACAUGUAAACCA | 22.1% | 33% |
| UGGAACGACAUGUAAACCA | 47.1% | 101% |
| UGGAACUACAUGUAAACCA | 30.8% | 70.9% |
| UGGAAGAACAUGUAAACCA | 43.3% | 72.6% |
| UGGAAGCACAUGUAAACCA | 9.98% | 43% |
| UGGAAGGACAUGUAAACCA | 14.4% | 13.2% |
| UGGAAGUACAUGUAAACCA | 16.5% | 39.4% |
| UGGAAUAACAUGUAAACCA | 69.1% | 97.2% |
| UGGAAUCACAUGUAAACCA | 22.4% | 43.5% |
| UGGAAUGACAUGUAAACCA | 42.9% | 70.8% |
| UGGAAUUACAUGUAAACCA | 57.8% | 75.7% |
| UGGACAAACAUGUAAACCA | 17.7% | 69.3% |
| UGGACACACAUGUAAACCA | 29.1% | 43.7% |
| UGGACAGACAUGUAAACCA | 11% | 58.4% |
| UGGACAUACAUGUAAACCA | 23.3% | 52.5% |
| UGGACCAACAUGUAAACCA | 30.6% | 79.5% |
| UGGACCCACAUGUAAACCA | 26.1% | 42.8% |

| Sequence | cell viability (GL261) | cell viability (H4) |
| --- | --- | --- |
| UGGACCGACAUGUAAACCA | 22.6% | 68% |
| UGGACCUACAUGUAAACCA | 27.5% | 69.7% |
| UGGACGAACAUGUAAACCA | 34.7% | 57.3% |
| UGGACGCACAUGUAAACCA | 38.9% | 43.8% |
| UGGACGGACAUGUAAACCA | 18.3% | 44.1% |
| UGGACGUACAUGUAAACCA | 25.1% | 47.3% |
| UGGACUAACAUGUAAACCA | 53.2% | 77.7% |
| UGGACUCACAUGUAAACCA | 14.5% | 65.6% |
| UGGACUGACAUGUAAACCA | 25% | 61.9% |
| UGGACUUACAUGUAAACCA | 26% | 67.4% |
| UGGAGAAACAUGUAAACCA | 57.9% | 84.2% |
| UGGAGACACAUGUAAACCA | 29.4% | 29.5% |
| UGGAGAGACAUGUAAACCA | 37.4% | 41.7% |
| UGGAGAUACAUGUAAACCA | 26.6% | 27.5% |
| UGGAGCAACAUGUAAACCA | 26.3% | 14% |
| UGGAGCCACAUGUAAACCA | 8.37% | 17.7% |
| UGGAGCGACAUGUAAACCA | 25.5% | 16.7% |
| UGGAGCUACAUGUAAACCA | 14.4% | 16.8% |
| UGGAGGAACAUGUAAACCA | 22.6% | 29.1% |
| UGGAGGCACAUGUAAACCA | 8.55% | 20.6% |
| UGGAGGGACAUGUAAACCA | 11.3% | 6.12% |
| UGGAGGUACAUGUAAACCA | 10.9% | 16.1% |
| UGGAGUAACAUGUAAACCA | 52.7% | 93% |
| UGGAGUCACAUGUAAACCA | 13.9% | 52.5% |

| Sequence | cell viability (GL261) | cell viability (H4) |
| --- | --- | --- |
| UGGAGUGACAUGUAAACCA | 25% | 57.6% |
| UGGAGUUACAUGUAAACCA | 18.8% | 60.4% |
| UGGAUAAACAUGUAAACCA | 77.7% | 101% |
| UGGAUACACAUGUAAACCA | 39.8% | 117% |
| UGGAUAGACAUGUAAACCA | 28.6% | 77.4% |
| UGGAUAUACAUGUAAACCA | 33.9% | 105% |
| UGGAUCAACAUGUAAACCA | 30.7% | 55% |
| UGGAUCCACAUGUAAACCA | 17.3% | 37.7% |
| UGGAUCGACAUGUAAACCA | 41.3% | 80.7% |
| UGGAUCUACAUGUAAACCA | 26.2% | 30.8% |
| UGGAUGAACAUGUAAACCA | 45.5% | 66.7% |
| UGGAUGCACAUGUAAACCA | 17.4% | 22.9% |
| UGGAUGGACAUGUAAACCA | 12.4% | 19.4% |
| UGGAUGUACAUGUAAACCA | 45.8% | 91% |
| UGGAUUAACAUGUAAACCA | 59.9% | 90.9% |
| UGGAUUCACAUGUAAACCA | 46.5% | 86% |
| UGGAUUGACAUGUAAACCA | 66.3% | 81.3% |
| UGGAUUUACAUGUAAACCA | 80% | 86.9% |
| UGGCAAAACAUGUAAACCA | 21.8% | 92.7% |
| UGGCAACACAUGUAAACCA | 36% | 61.5% |
| UGGCAAGACAUGUAAACCA | 29.1% | 62.6% |
| UGGCAAUACAUGUAAACCA | 18.9% | 64.8% |
| UGGCACAACAUGUAAACCA | 13.7% | 34.1% |
| UGGCACCACAUGUAAACCA | 19.4% | 32.6% |

| Sequence | cell viability (GL261) | cell viability (H4) |
| --- | --- | --- |
| UGGCACGACAUGUAAACCA | 17% | 76.6% |
| UGGCACUACAUGUAAACCA | 5.72% | 33.8% |
| UGGCAGAACAUGUAAACCA | 8.94% | 37.6% |
| UGGCAGCACAUGUAAACCA | 7.25% | 6.46% |
| UGGCAGGACAUGUAAACCA | 11.7% | 4.74% |
| UGGCAGUACAUGUAAACCA | 8.7% | 23.1% |
| UGGCAUAACAUGUAAACCA | 27.5% | 83.7% |
| UGGCAUCACAUGUAAACCA | 14% | 26.6% |
| UGGCAUGACAUGUAAACCA | 15% | 38.2% |
| UGGCAUUACAUGUAAACCA | 15.3% | 78.5% |
| UGGCCAAACAUGUAAACCA | 50.8% | 48.5% |
| UGGCCACACAUGUAAACCA | 23.6% | 5.09% |
| UGGCCAGACAUGUAAACCA | 41.2% | 23.7% |
| UGGCCAUACAUGUAAACCA | 38.8% | 5.6% |
| UGGCCCAACAUGUAAACCA | 26.9% | 50.6% |
| UGGCCCCACAUGUAAACCA | 20.6% | 27.1% |
| UGGCCCGACAUGUAAACCA | 20.3% | 86.2% |
| UGGCCCUACAUGUAAACCA | 16.9% | 21.5% |
| UGGCCGAACAUGUAAACCA | 37.4% | 45.2% |
| UGGCCGCACAUGUAAACCA | 11% | 7.25% |
| UGGCCGGACAUGUAAACCA | 26.8% | 8.21% |
| UGGCCGUACAUGUAAACCA | 22.9% | 20.4% |
